Test results taken from PMC12292926.
Results are given in words; binding and its absence hold for the method and conditions named. Binding seen in cells or lysates may run through a third protein. Some entries that bind do so weakly or less than the wild type. For some assays here: Where a sequence is shown, tags or fusion partners need not be part of it.

By UniProt entry, the sequences of proteins in these tests, tags left out. Where a name states a change or a piece, a line headed by the entry shows the natural chain unless it says otherwise. Residues count along the entry.
UniProt Q8IZL8: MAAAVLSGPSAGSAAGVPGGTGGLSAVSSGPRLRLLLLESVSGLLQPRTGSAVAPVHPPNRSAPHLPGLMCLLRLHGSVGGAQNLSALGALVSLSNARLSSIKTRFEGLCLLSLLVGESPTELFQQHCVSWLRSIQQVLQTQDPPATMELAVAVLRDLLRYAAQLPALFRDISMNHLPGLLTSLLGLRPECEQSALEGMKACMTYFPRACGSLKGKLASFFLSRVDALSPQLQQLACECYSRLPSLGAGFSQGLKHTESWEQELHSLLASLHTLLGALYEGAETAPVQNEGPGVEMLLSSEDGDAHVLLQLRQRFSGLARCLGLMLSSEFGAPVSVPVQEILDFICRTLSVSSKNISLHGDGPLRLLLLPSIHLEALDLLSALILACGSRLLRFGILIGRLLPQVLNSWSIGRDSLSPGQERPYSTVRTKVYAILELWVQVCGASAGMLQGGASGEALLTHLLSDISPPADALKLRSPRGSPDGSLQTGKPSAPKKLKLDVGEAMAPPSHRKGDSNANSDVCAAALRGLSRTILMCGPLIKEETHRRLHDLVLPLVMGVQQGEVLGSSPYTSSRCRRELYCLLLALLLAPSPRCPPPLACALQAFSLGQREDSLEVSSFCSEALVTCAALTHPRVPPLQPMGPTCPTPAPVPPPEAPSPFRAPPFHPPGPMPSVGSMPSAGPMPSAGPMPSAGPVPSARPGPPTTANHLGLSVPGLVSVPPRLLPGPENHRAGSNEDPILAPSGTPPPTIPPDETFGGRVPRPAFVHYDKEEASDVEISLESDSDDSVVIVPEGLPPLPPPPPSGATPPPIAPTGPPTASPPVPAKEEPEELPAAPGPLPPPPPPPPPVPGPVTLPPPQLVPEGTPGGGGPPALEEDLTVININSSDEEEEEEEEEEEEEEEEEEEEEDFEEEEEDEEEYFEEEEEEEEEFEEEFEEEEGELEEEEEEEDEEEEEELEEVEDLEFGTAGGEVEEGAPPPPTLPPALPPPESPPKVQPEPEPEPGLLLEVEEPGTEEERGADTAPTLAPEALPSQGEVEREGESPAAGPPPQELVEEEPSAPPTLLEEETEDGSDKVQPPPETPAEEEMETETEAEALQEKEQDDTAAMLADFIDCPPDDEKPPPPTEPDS
UniProt Q9H4L4, residues 303-574: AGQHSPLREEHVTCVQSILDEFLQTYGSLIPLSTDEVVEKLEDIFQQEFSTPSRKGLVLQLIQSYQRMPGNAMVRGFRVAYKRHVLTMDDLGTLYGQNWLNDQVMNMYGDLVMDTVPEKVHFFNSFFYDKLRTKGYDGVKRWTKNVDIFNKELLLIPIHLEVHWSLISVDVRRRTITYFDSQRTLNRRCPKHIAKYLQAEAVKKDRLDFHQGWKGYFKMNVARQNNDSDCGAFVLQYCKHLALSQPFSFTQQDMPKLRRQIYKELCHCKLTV

T1: TEX10, wild type, N-terminal GFP tag (human) (UniProt Q9NXF1)
T1 sequence: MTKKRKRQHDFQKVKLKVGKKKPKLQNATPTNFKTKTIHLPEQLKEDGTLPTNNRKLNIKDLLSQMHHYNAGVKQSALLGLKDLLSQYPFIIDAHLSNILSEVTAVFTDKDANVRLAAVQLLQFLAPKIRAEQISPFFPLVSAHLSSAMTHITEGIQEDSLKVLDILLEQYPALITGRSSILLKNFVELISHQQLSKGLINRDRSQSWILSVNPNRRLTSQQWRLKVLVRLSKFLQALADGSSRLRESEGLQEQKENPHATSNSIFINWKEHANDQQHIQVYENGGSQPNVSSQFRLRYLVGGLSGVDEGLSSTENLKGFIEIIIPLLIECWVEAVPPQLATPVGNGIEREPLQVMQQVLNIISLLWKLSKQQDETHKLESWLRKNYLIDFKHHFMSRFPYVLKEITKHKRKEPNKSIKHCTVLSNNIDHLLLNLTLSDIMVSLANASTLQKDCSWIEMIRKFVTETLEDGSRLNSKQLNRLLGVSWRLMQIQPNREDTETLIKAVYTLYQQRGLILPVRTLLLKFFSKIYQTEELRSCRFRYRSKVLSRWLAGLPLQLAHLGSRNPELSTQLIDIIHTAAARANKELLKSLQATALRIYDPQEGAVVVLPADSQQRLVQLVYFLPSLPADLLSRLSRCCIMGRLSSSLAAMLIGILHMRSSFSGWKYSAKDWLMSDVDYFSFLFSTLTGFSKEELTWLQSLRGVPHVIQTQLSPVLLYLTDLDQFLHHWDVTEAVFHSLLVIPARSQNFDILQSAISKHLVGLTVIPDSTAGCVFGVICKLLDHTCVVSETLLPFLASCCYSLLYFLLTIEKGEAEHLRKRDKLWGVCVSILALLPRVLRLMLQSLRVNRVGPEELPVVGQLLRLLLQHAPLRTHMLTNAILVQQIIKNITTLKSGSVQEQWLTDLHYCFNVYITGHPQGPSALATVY

T2: TEX10 CTE alone (C-terminal extension, residues 375 to 929), N-terminal GFP tag (human) (UniProt Q9NXF1)
T2 sequence: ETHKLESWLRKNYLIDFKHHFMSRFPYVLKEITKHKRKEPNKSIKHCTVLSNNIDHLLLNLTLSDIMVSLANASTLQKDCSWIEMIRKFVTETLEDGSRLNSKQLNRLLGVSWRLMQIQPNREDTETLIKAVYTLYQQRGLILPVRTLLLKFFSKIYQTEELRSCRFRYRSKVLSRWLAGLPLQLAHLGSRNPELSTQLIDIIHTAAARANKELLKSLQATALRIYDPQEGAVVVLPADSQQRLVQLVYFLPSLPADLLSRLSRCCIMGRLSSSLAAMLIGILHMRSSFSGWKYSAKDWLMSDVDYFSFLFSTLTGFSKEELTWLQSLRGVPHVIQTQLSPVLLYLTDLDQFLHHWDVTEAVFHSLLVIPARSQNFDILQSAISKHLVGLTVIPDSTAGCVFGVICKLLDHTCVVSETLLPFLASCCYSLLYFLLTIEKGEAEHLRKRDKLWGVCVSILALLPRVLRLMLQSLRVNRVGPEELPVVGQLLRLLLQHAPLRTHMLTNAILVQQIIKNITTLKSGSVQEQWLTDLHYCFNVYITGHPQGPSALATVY


What was measured:
[1] = target: PELP1 K826R (SUMOylation site lysine 826 to arginine) (human) (UniProt Q8IZL8); test: co-IP; anti-FLAG M2 affinity gel; FLAG-tagged PELP1 variants as bait, exogenous rixosome subunits co-transfected in HEK293FT; lysis in 50 mM Hepes pH 7.5, 200 mM NaCl, 5 mM MgCl2, 10% glycerol, 0.5% NP-40, 1 mM DTT, 4°C; SDS-PAGE and Western blot
[2] = target: SENP3 SUMO protease domain (residues 303 to 574), N-terminal FLAG tag (human) (UniProt Q9H4L4); test: co-IP; anti-FLAG M2 affinity gel; N-terminally FLAG-tagged SENP3 truncations as bait, exogenous rixosome co-transfected in HEK293FT; Western blot
[3] = target: T1, TEX10, wild type, N-terminal GFP tag (human); test: co-IP; anti-GFP nanobody Sepharose; N-terminally GFP-tagged TEX10 variants as bait, exogenous rixosome including LAS1L-NOL9 co-transfected in HEK293FT; Western blot
[4] = target: T2, TEX10 CTE alone (C-terminal extension, residues 375 to 929), N-terminal GFP tag (human); test: as above
[5] = target: PELP1, wild type, C-terminal FLAG tag (human), Q8IZL8; test: co-IP; anti-FLAG M2 affinity gel; FLAG-tagged PELP1 variants as bait, exogenous rixosome subunits co-transfected in HEK293FT; lysis in 50 mM Hepes pH 7.5, 200 mM NaCl, 5 mM MgCl2, 10% glycerol, 0.5% NP-40, 1 mM DTT, 4°C; SDS-PAGE and Western blot; conditions: remark: other sources report otherwise
[6] = target: PELP1, wild type, C-terminal FLAG tag (human) (UniProt Q8IZL8); test: as above

binding [1]	binding [2]	binding [3]	binding [4]	binding [5]	binding [6]	Binder
binds	binds	binds	binds			LAS1L-NOL9 (RNase PNK), co-expressed rixosome module (complex, UniProt Q9Y4W2 1-734; Q5SY16 1-702) chain 1: MSWESGAGPGLGSQGMDLVWSAWYGKCVKGKGSLPLSAHGIVVAWLSRAEWDQVTVYLFCDDHKLQRYALNRITVWRSRSGNELPLAVASTADLIRCKLLDVTGGLGTDELRLLYGMALVRFVNLISERKTKFAKVPLKCLAQEVNIPDWIVDLRHELTHKKMPHINDCRRGCYFVLDWLQKTYWCRQLENSLRETWELEEFREGIEEEDQEEDKNIVVDDITEQKPEPQDDGKSTESDVKADGDSKGSEEVDSHCKKALSHKELYERARELLVSYEEEQFTVLEKFRYLPKAIKAWNNPSPRVECVLAELKGVTCENREAVLDAFLDDGFLVPTFEQLAALQIEYEDGQTEVQRGEGTDPKSHKNVDLNDVLVPKPFSQFWQPLLRGLHSQNFTQALLERMLSELPALGISGIRPTYILRWTVELIVANTKTGRNARRFSAGQWEARRGWRLFNCSASLDWPRMVESCLGSPCWASPQLLRIIFKAMGQGLPDEEQEKLLRICSIYTQSGENSLVQEGSEASPIGKSPYTLDSLYWSVKPASSSFGSEAKAQQQEEQGSVNDVKEEEKEEKEVLPDQVEEEEENDDQEEEEEDEDDEDDEEEDRMEVGPFSTGQESPTAENARLLAQKRGALQGSAWQVSSEDVRWDTFPLGRMPGQTEDPAELMLENYDTMYLLDQPVLEQRLEPSTCKTDTLGLSCGVGSGNCSNSSSSNFEGLLWSQGQLHGLKTGLQLF chain 2: MADSGLLLKRGSCRSTWLRVRKARPQLILSRRPRRRLGSLRWCGRRRLRWRLLQAQASGVDWREGARQVSRAAAARRPNTATPSPIPSPTPASEPESEPELESASSCHRPLLIPPVRPVGPGRALLLLPVEQGFTFSGICRVTCLYGQVQVFGFTISQGQPAQDIFSVYTHSCLSIHALHYSQPEKSKKELKREARNLLKSHLNLDDRRWSMQNFSPQCSIVLLEHLKTATVNFITSYPGSSYIFVQESPTPQIKPEYLALRSVGIRREKKRKGLQLTESTLSALEELVNVSCEEVDGCPVILVCGSQDVGKSTFNRYLINHLLNSLPCVDYLECDLGQTEFTPPGCISLLNITEPVLGPPFTHLRTPQKMVYYGKPSCKNNYENYIDIVKYVFSAYKRESPLIVNTMGWVSDQGLLLLIDLIRLLSPSHVVQFRSDHSKYMPDLTPQYVDDMDGLYTKSKTKMRNRRFRLAAFADALEFADEEKESPVEFTGHKLIGVYTDFAFRITPRNRESHNKILRDLSILSYLSQLQPPMPKPLSPLHSLTPYQVPFNAVALRITHSDVAPTHILYAVNASWVGLCKIQDDVRGYTNGPILLAQTPICDCLGFGICRGIDMEKRLYHILTPVPPEELRTVNCLLVGAIAIPHCVLKCQRGIEGTVPYVTTDYNFKLPGASEKIGAREPEEAHKEKPYRRPKFCRKMK
				binds		LAS1L-NOL9 (RNase PNK), co-expressed rixosome module, Q9Y4W2 1-734; Q5SY16 1-702 (complex) chain 1: MSWESGAGPGLGSQGMDLVWSAWYGKCVKGKGSLPLSAHGIVVAWLSRAEWDQVTVYLFCDDHKLQRYALNRITVWRSRSGNELPLAVASTADLIRCKLLDVTGGLGTDELRLLYGMALVRFVNLISERKTKFAKVPLKCLAQEVNIPDWIVDLRHELTHKKMPHINDCRRGCYFVLDWLQKTYWCRQLENSLRETWELEEFREGIEEEDQEEDKNIVVDDITEQKPEPQDDGKSTESDVKADGDSKGSEEVDSHCKKALSHKELYERARELLVSYEEEQFTVLEKFRYLPKAIKAWNNPSPRVECVLAELKGVTCENREAVLDAFLDDGFLVPTFEQLAALQIEYEDGQTEVQRGEGTDPKSHKNVDLNDVLVPKPFSQFWQPLLRGLHSQNFTQALLERMLSELPALGISGIRPTYILRWTVELIVANTKTGRNARRFSAGQWEARRGWRLFNCSASLDWPRMVESCLGSPCWASPQLLRIIFKAMGQGLPDEEQEKLLRICSIYTQSGENSLVQEGSEASPIGKSPYTLDSLYWSVKPASSSFGSEAKAQQQEEQGSVNDVKEEEKEEKEVLPDQVEEEEENDDQEEEEEDEDDEDDEEEDRMEVGPFSTGQESPTAENARLLAQKRGALQGSAWQVSSEDVRWDTFPLGRMPGQTEDPAELMLENYDTMYLLDQPVLEQRLEPSTCKTDTLGLSCGVGSGNCSNSSSSNFEGLLWSQGQLHGLKTGLQLF chain 2: MADSGLLLKRGSCRSTWLRVRKARPQLILSRRPRRRLGSLRWCGRRRLRWRLLQAQASGVDWREGARQVSRAAAARRPNTATPSPIPSPTPASEPESEPELESASSCHRPLLIPPVRPVGPGRALLLLPVEQGFTFSGICRVTCLYGQVQVFGFTISQGQPAQDIFSVYTHSCLSIHALHYSQPEKSKKELKREARNLLKSHLNLDDRRWSMQNFSPQCSIVLLEHLKTATVNFITSYPGSSYIFVQESPTPQIKPEYLALRSVGIRREKKRKGLQLTESTLSALEELVNVSCEEVDGCPVILVCGSQDVGKSTFNRYLINHLLNSLPCVDYLECDLGQTEFTPPGCISLLNITEPVLGPPFTHLRTPQKMVYYGKPSCKNNYENYIDIVKYVFSAYKRESPLIVNTMGWVSDQGLLLLIDLIRLLSPSHVVQFRSDHSKYMPDLTPQYVDDMDGLYTKSKTKMRNRRFRLAAFADALEFADEEKESPVEFTGHKLIGVYTDFAFRITPRNRESHNKILRDLSILSYLSQLQPPMPKPLSPLHSLTPYQVPFNAVALRITHSDVAPTHILYAVNASWVGLCKIQDDVRGYTNGPILLAQTPICDCLGFGICRGIDMEKRLYHILTPVPPEELRTVNCLLVGAIAIPHCVLKCQRGIEGTVPYVTTDYNFKLPGASEKIGAREPEEAHKEKPYRRPKFCRKMK
binds	binds				binds	TEX10, co-expressed rixosome subunit found with PELP1 or SENP3 baits (protein, UniProt Q9NXF1 1-929) MTKKRKRQHDFQKVKLKVGKKKPKLQNATPTNFKTKTIHLPEQLKEDGTLPTNNRKLNIKDLLSQMHHYNAGVKQSALLGLKDLLSQYPFIIDAHLSNILSEVTAVFTDKDANVRLAAVQLLQFLAPKIRAEQISPFFPLVSAHLSSAMTHITEGIQEDSLKVLDILLEQYPALITGRSSILLKNFVELISHQQLSKGLINRDRSQSWILSVNPNRRLTSQQWRLKVLVRLSKFLQALADGSSRLRESEGLQEQKENPHATSNSIFINWKEHANDQQHIQVYENGGSQPNVSSQFRLRYLVGGLSGVDEGLSSTENLKGFIEIIIPLLIECWVEAVPPQLATPVGNGIEREPLQVMQQVLNIISLLWKLSKQQDETHKLESWLRKNYLIDFKHHFMSRFPYVLKEITKHKRKEPNKSIKHCTVLSNNIDHLLLNLTLSDIMVSLANASTLQKDCSWIEMIRKFVTETLEDGSRLNSKQLNRLLGVSWRLMQIQPNREDTETLIKAVYTLYQQRGLILPVRTLLLKFFSKIYQTEELRSCRFRYRSKVLSRWLAGLPLQLAHLGSRNPELSTQLIDIIHTAAARANKELLKSLQATALRIYDPQEGAVVVLPADSQQRLVQLVYFLPSLPADLLSRLSRCCIMGRLSSSLAAMLIGILHMRSSFSGWKYSAKDWLMSDVDYFSFLFSTLTGFSKEELTWLQSLRGVPHVIQTQLSPVLLYLTDLDQFLHHWDVTEAVFHSLLVIPARSQNFDILQSAISKHLVGLTVIPDSTAGCVFGVICKLLDHTCVVSETLLPFLASCCYSLLYFLLTIEKGEAEHLRKRDKLWGVCVSILALLPRVLRLMLQSLRVNRVGPEELPVVGQLLRLLLQHAPLRTHMLTNAILVQQIIKNITTLKSGSVQEQWLTDLHYCFNVYITGHPQGPSALATVY
